Results on two proteins are retold here after paper PMC3050027 (Molecular cell, 2010).

This data set concerns the molecule itself. The experiment in a line: SEC. On the technique in general: SEC sorts molecules by how far they enter the pores of the column.

B1: BAX(E69K) (natural protein)
chain: not shown
Take B1: the binding result was “binds”.

B2: BAX(K21E, E69K) (natural protein)
chain: not shown
On to B2, for which the binding result is on record as “binds”.
